69 compounds from the supplement of paper PMC5919970 can be followed below.

SMILES strings stand for the structures. Structures can show the parent of a compound that is named as a salt. In all, about 2,000 compounds were measured (“fractional viability relative to vehicle”: median about 0.92, lowest 2% from about 0.11 on). The list shows a part of the results.

This assay concerns TYKNU. Briefly: fractional viability relative to vehicle; TYKNU is a high-grade serous ovarian cancer line; higher = less growth inhibition. Conditions: 72 h, genotype: OPA1 knockout (sgOPA1 #2). Put shortly:
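Drug treatment lasted 72 h, with cells grown at 37 °C in 5% CO2 in RPMI 1640 supplemented with 10% FBS. Beforehand, TYKNU control cells or their lentiCRISPRv2 knockout derivatives had been seeded at 500 cells per well into drug-stamped 384-well plates carrying a ~2100-compound library at 2 or 10 μM, in duplicate. Viability came from Cell Titer Glo luminescence, with averaged duplicate treatment wells normalised to duplicate control wells in the same plate position.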

With `Cc1cc(-n2c(=O)[nH]c(=O)n(C)c2=O)ccc1Oc1ccc(SC(F)(F)F)cc1` [Toltrazuril], the fractional viability is, setting by setting: (2uM) 0.929; (10uM) 0.817.
On the same counts, the results for `Cc1ccccc1N1C(=O)c2cc(S(N)(=O)=O)c(Cl)cc2NC1C` (stereo not drawn) [Metolazone] are 1.16 and 0.992.
`[I-].[K+]` [Potassium Iodide]: the fractional viability was found to be 1.07 (2uM) and 0.971 (10uM).
On the same counts, the results for `C/C(=N\NC(=O)c1cccc(S(=O)(=O)N2CCOCC2)c1)c1cc(Cl)ccc1O` are 0.715 and 0.527.
As to `O=C(NS(=O)(=O)c1ccc(Br)s1)c1ccc(Cl)cc1Cl` [Tasisulam], the fractional viability is, setting by setting: (2uM) 1.08; (10uM) 0.831.
As to `COc1ccc(CNC(=O)Nc2ncc([N+](=O)[O-])s2)cc1`, the fractional viability reads like this: (2uM) 1.38; (10uM) 0.704.
On the same counts, the results for `Cn1c2ccccc2c2c3c(c4c5ccccc5n(CCC#N)c4c21)CNC3=O` are 0.875 and 0.695.
As to `OCCOCCN1CCN(C(c2ccccc2)c2ccc(Cl)cc2)CC1` (stereo not drawn) [Hydroxyzine 2HCl], the fractional viability came out at 0.997 (2uM) and 0.986 (10uM).
As to `NC(=S)N/N=C/c1ncccc1N` [Triapine], the fractional viability worked out at 0.539 (2uM) and 0.477 (10uM).
On the same counts, the results for `Nc1cccc2c1CN(C1CCC(=O)NC1=O)C2=O` (stereo not drawn) [Lenalidomide (CC-5013)] are 1.14 and 1.02.
On the same counts, the results for `COc1nc(-c2ccc3c(c2)OCO3)n(-c2ccc(NC(=O)CSc3ccccc3)cc2)n1` [SecinH3] are 0.867 and 0.975.
On the same counts, the results for `CCS(=O)(=O)Nc1ccc2c(c1)/C(=C(/Nc1ccc(CN3CCCCC3)cc1)c1ccccc1)C(=O)N2` [Hesperadin] are 0.544 and 0.113.
Consider `O=C(Nc1ccc(-c2ccnc(Nc3ccc(N4CCOCC4)cc3)n2)cc1)C1CCCN1` (stereo not drawn), for which the fractional viability runs as follows: (2uM) 0.972; (10uM) 1.07.
The compound `COc1ccc2[nH]c([S+]([O-])Cc3ncc(C)c(OC)c3C)nc2c1` (stereo not drawn) [Omeprazole] showed a fractional viability (2uM) of 1.16 and a fractional viability (10uM) of 1.32.
On the same counts, the results for `CCOC(=O)[C@H](CCc1ccccc1)N[C@@H](C)C(=O)N1CCC[C@H]1C(=O)O` [Enalapril Maleate] are 0.919 and 1.05.
`CNC(=O)[C@H](Cc1ccccc1)NC(=O)[C@H](CC(C)C)[C@H](CSc1cccs1)C(=O)NO` [Batimastat (BB-94)]: the fractional viability was 0.586 (2uM) and 0.568 (10uM).
For `C[C@]12CC[C@@H]3c4ccc(O)cc4CC[C@H]3[C@@H]1C[C@@H](O)[C@@H]2O` [Estriol], the fractional viability worked out at 1.06 (2uM) and 0.814 (10uM).
In turn, `Cc1nc(N)sc1-c1ccnc(Nc2ccc(N3CCOCC3)cc2)n1` registered a fractional viability (2uM) of 1.08 and a fractional viability (10uM) of 0.715.
For `CCC[C@H](NC(=O)[C@@H]1[C@H]2CCC[C@H]2CN1C(=O)[C@@H](NC(=O)[C@@H](NC(=O)c1cnccn1)C1CCCCC1)C(C)(C)C)C(=O)C(=O)NC1CC1` [Telaprevir (VX-950)], the fractional viability (2uM) amounted to 1.1 and the fractional viability (10uM) came to 0.577.
On the same counts, the results for `Cc1noc(NS(=O)(=O)c2ccc(N)cc2)c1C` [Sulfisoxazole] are 1.14 and 1.06.
On the same counts, the results for `CCc1cccc2c3c([nH]c12)C(CC)(CC(=O)O)OCC3` (stereo not drawn) [Etodolac] are 1.09 and 0.888.
On the same counts, the results for `C[C@@H]1CN(CC(=O)Nc2ccc3c(c2)Cc2cccc(-c4cc(=O)cc(N5CCOCC5)o4)c2S3)C[C@H](C)O1` are 1.12 and 0.748.
On to `O=C(O)c1ccccc1C(=O)Nc1ccc(-c2ccccc2)cc1` [Kartogenin], for which the fractional viability is 0.838 (2uM) and 0.747 (10uM).
`CC(=O)N1CCN(CCOc2ccc(C3CCN(C4=Nn5c(nnc5C(F)(F)F)CC4)CC3)cc2)CC1`: the fractional viability stood at 0.883 (2uM) and 0.826 (10uM).
Turning to `C=CC(=O)N1CCC[C@@H](n2nc(-c3ccc(Oc4ccccc4)cc3)c3c(N)ncnc32)C1`, the fractional viability runs as follows: (2uM) 0.903; (10uM) 0.918.
On the same counts, the results for `C=CC(=O)Nc1ccc2ncnc(Nc3ccc(OCc4cccc(F)c4)c(Cl)c3)c2c1` are 0.742 and 0.0667.
On the same counts, the results for `CC1=C(CC(=O)O)c2cc(F)ccc2/C1=C\c1ccc([S+](C)[O-])cc1` (stereo not drawn) [Sulindac] are 0.998 and 0.875.
Turning to `Cn1c([N+](=O)[O-])cnc1COC(N)=O` [Ronidazole], the fractional viability is, setting by setting: (2uM) 1.77; (10uM) 1.32.
On the same counts, the results for `CCN(c1cc(-c2ccc(CN3CCOCC3)cc2)cc(C(=O)NCc2c(C)cc(C)[nH]c2=O)c1C)C1CCOCC1` are 0.936 and 0.888.
On to `CN(C)[C@@H]1C(O)=C(C(N)=O)C(=O)[C@@]2(O)C(O)=C3C(=O)c4c(O)ccc(Cl)c4[C@@H](O)[C@H]3C[C@@H]12` [Demeclocycline HCl], for which the fractional viability stood at 1.55 (2uM) and 1.13 (10uM).
Consider `O=C(O)CC1CC(c2ccccc2)=NO1` (stereo not drawn), for which the fractional viability is 0.825 (2uM) and 0.726 (10uM).
As for `CC[C@@H]1/C=C(\C)C[C@H](C)C[C@H](OC)[C@H]2O[C@@](O)(C(=O)C(=O)N3CCCC[C@H]3C(=O)O[C@H](/C(C)=C/[C@@H]3CC[C@H](Cl)[C@H](OC)C3)[C@H](C)[C@@H](O)CC1=O)[C@H](C)C[C@@H]2OC` [Pimecrolimus], the fractional viability runs as follows: (2uM) 0.794; (10uM) 0.719.
On the same counts, the results for `OC[C@H]1O[C@@H](O[C@@H]2[C@@H](CO)OC(O)(CO)[C@H]2O)[C@H](O)[C@@H](O)[C@H]1O` (mixture of isomers) [Lactulose] are 1.08 and 0.934.
Consider `Cc1cc(Nc2nc(N[C@@H](C)c3ncc(F)cn3)ncc2Cl)[nH]n1`, for which the fractional viability reads like this: (2uM) 0.91; (10uM) 0.875.
As to `COC[C@H](NC(=O)c1cnc(C)s1)C(=O)N[C@@H](COC)C(=O)N[C@@H](Cc1ccccc1)C(=O)[C@@]1(C)CO1` [Oprozomib (ONX 0912)], the fractional viability (2uM) came to 0.153 and the fractional viability (10uM) came out at 0.136.
With `CCCCC(=O)N(Cc1ccc(-c2ccccc2-c2nnn[nH]2)cc1)[C@H](C(=O)O)C(C)C.CCOC(=O)[C@H](C)C[C@@H](Cc1ccc(-c2ccccc2)cc1)NC(=O)CCC(=O)O`, the fractional viability is 0.858 (2uM) and 0.825 (10uM).
Take `Cc1ccc2c(Cl)cc(Cl)c(O)c2n1` [Chlorquinaldol]: the fractional viability by setting is: (2uM) 0.802; (10uM) 0.53.
On the same counts, the results for `N=C(N)N/N=C/c1c(Cl)cccc1Cl` [Guanabenz Acetate] are 0.969 and 0.8.
On the same counts, the results for `NCc1c[nH]c(=S)n1[C@@H]1CCc2c(F)cc(F)cc2C1` [(R)-Nepicastat HCl] are 0.932 and 0.924.
On the same counts, the results for `C[C@H](Oc1cc(-c2cnn(C3CCNCC3)c2)cnc1N)c1c(Cl)ccc(F)c1Cl` [(S)-crizotinib] are 0.839 and 0.197.
Compound `Brc1c(NC2=NCCN2)ccc2nccnc12` [Brimonidine Tartrate] showed a fractional viability (2uM) of 0.995 and a fractional viability (10uM) of 1.13.
On the same counts, the results for `CN(C)CCOC(=O)COc1ccc(Cl)cc1` [Meclofenoxate (Centrophenoxine) HCl] are 0.946 and 0.981.
On the same counts, the results for `Fc1cc(-c2cccc3ncc(-c4cnn(C5CCNCC5)c4)nc23)cc(F)c1CN1CCOCC1` are 0.858 and 0.133.
On the same counts, the results for `COc1ccc(C[C@@H]2c3cc(OC)c(OC)cc3CC[N@+]2(C)CCC(=O)OCCCCCOC(=O)CC[N@@+]2(C)CCc3cc(OC)c(OC)cc3[C@H]2Cc2ccc(OC)c(OC)c2)cc1OC` [Cisatracurium Besylate] are 1.01 and 0.743.
As for `CCOC(=O)c1c(C)n(C)c2ccc(O)cc12` [Mecarbinate], the fractional viability stood at 1.04 (2uM) and 1.11 (10uM).
On the same counts, the results for `CC(N)C12CC3CC(CC(C3)C1)C2` (stereo not drawn) [Rimantadine] are 1.16 and 0.989.
Take `CN(CCOc1ccc(CC2SC(=O)NC2=O)cc1)c1ccccn1` (stereo not drawn) [Rosiglitazone HCl]: the fractional viability is, setting by setting: (2uM) 1.05; (10uM) 1.02.
For `CN(CCOc1ccc(CC2SC(=O)NC2=O)cc1)c1ccccn1` (stereo not drawn) [Rosiglitazone], the fractional viability was found to be 0.878 (2uM) and 0.729 (10uM).
On the same counts, the results for `CN(CCOc1ccc(CC2SC(=O)NC2=O)cc1)c1ccccn1` (stereo not drawn) [Rosiglitazone maleate] are 0.952 and 0.847.
Consider `CC(C)C[C@H](NC(=O)[C@H]1O[C@@H]1C(=O)O)C(=O)NCCCCN=C(N)N`, for which the fractional viability (2uM) is 0.888 and the fractional viability (10uM) came to 0.776.
On the same counts, the results for `CN(C)Cc1ccc(-c2nc3cccc4c3n2CCNC4=O)cc1` are 0.997 and 0.847.
On the same counts, the results for `O=C(/C=C\n1cnc(-c2cc(C(F)(F)F)cc(C(F)(F)F)c2)n1)NNc1cnccn1` are 0.22 and 0.243.
On the same counts, the results for `Cc1[nH]c(/C=C2\C(=O)Nc3ccc(S(=O)(=O)N(C)c4cccc(Cl)c4)cc32)c(C)c1C(=O)N1CCN(C)CC1` are 1.37 and 0.133.
Consider `CCC1C/C(=C\c2cccnc2)C(=O)/C(=C/c2cccnc2)C1` (stereo not drawn), for which the fractional viability by setting is: (2uM) 0.442; (10uM) 0.189.
On the same counts, the results for `Oc1c2ccccc2c2c3c(cccc13)N=N2` are 1.68 and 1.27.
On the same counts, the results for `COC(=O)[C@@H]1[C@H]2C[C@H]3c4[nH]c5ccccc5c4CCN3C[C@@H]2CC[C@@H]1O` [Yohimbine HCl] are 1.06 and 0.849.
On the same counts, the results for `CC(C)NCC(O)COc1cccc2ccccc12` (stereo not drawn) [Propranolol HCl] are 0.809 and 1.12.
As for `Cc1nc(NC(=O)N2CCC[C@H]2C(N)=O)sc1-c1ccnc(C(C)(C)C(F)(F)F)c1`, the fractional viability by setting is: (2uM) 0.866; (10uM) 0.631.
For `Cc1cc(C(O)=C2C(=O)C(=O)N(CCCN3CCOCC3)C2c2ccncc2)ccc1OCc1ccccc1` (stereo not drawn), the fractional viability stood at 0.973 (2uM) and 0.814 (10uM).
In the case of `Nc1ncnc2c1c(-c1cnc3[nH]ccc3c1)nn2C1CCCC1`, the fractional viability reads like this: (2uM) 0.547; (10uM) 0.343.
Regarding `O=C1CCc2cc(OCCCCc3nnnn3C3CCCCC3)ccc2N1` [Cilostazol], the fractional viability (2uM) turned out to be 1.07 and the fractional viability (10uM) stood at 1.02.
As to `N#C[C@@H]1C[C@@H]2C[C@@H]2N1C(=O)[C@@H](N)C12CC3CC(CC(O)(C3)C1)C2` [Saxagliptin], the fractional viability stood at 0.909 (2uM) and 0.958 (10uM).
On the same counts, the results for `CCS(=O)(=O)CCn1c([N+](=O)[O-])cnc1C` [Tinidazole] are 1.66 and 1.13.
Turning to `CCOC(=O)c1ccc(NC(=O)O[C@H]2[C@H](OC(=O)Nc3ccc4c(c3)OCO4)[C@@H](OC(=O)Nc3ccc4c(c3)OCO4)[C@@H](OC)O[C@@H]2CO)cc1`, the fractional viability came out at 1.07 (2uM) and 0.86 (10uM).
As to `CCNC(=O)C#Cc1ccc2c(C(=Nc3ccc(CN(C)C)cc3)c3ccccc3)c(O)[nH]c2c1`, the fractional viability amounted to 0.276 (2uM) and 0.0913 (10uM).
On the same counts, the results for `CCCCOc1cc(C(=O)NCCN(CC)CC)c2ccccc2n1` [Dibucaine HCl] are 1.01 and 0.958.
As for `COc1cc(Nc2nc3ccccc3nc2NS(=O)(=O)c2ccc(NC(=O)c3ccc(C)c(OC)c3)cc2)cc(OC)c1`, the fractional viability is, setting by setting: (2uM) 1; (10uM) 1.04.
On the same counts, the results for `CCC1=C(C)CN(C(=O)NCCc2ccc(S(=O)(=O)NC(=O)N[C@H]3CC[C@H](C)CC3)cc2)C1=O` [Glimepiride] are 1.05 and 1.02.
Consider `CCC(=O)O[C@]1(C(=O)CCl)[C@@H](C)C[C@H]2[C@@H]3C[C@H](F)C4=CC(=O)C=C[C@]4(C)[C@@]3(F)[C@@H](O)C[C@@]21C` [Halobetasol Propionate], for which the fractional viability was determined as 1.08 (2uM) and 0.662 (10uM).
